Results as given in patent publication US11655308B2, “HM-3 fusion protein and application thereof” (TASLY BIOPHARMACEUTICALS CO., LTD., priority 2017, dated 2023).

How the values were obtained:
[1] = Dimer stability during protein preparation (electrophoresis); format: physicochemical; settings: electrophoresis after purification (FIG. 5)
[2] = system: mice splenic lymphocyte proliferation stimulated by ConA; format: cell-based; settings: for inhibition ratio of mice splenic lymphocyte proliferation relative to group ConA: second round (Table 3); for inhibition rate / in vitro efficacy compared with TSL-4 control group: control: TSL-4 (P4 positive control, 12 μmol/L)
Experimental: Experimental method: mice orbit was by bloodletting to death, and immediately immersed in 75% ethanol for 5-10 min, and then the spleen was removed on a clean bench and placed in PBS. The spleen was placed on a sterile cell strainer (200 mesh) and ground with a syringe nozzle; during grinding process, PBS was added continuously; the slurry was collected and centrifuged (1000 rpm for 5 min), then cells were washed 3 times with Tris-ammonium chloride solution, and washed again with a medium, and then re-suspended in the medium. Finally, trypan blue living cell staining was performed on the cells, and the survival rate was more than 95%. The concentration of viable cells was adjusted to 2×10^6/mL. […] was added to each well of a 96-well plate, meanwhile, ConA (concanavalin to simulate splenocyte proliferation) and drugs were added to each well. Six duplicates were set in each group.
The 96-well plate was incubated for 48 h in a 5% CO2 incubator at 37° C. 5 mg/mL of MTT was added to the 96-well plate, 20 μL for each well, and then it was incubated continuously for 4 h in the incubator. The culture medium in the 96-well plate was discarded and 100 μL DMSO was added to each well and mixed gently. Absorbance was measured by a microplate reader at the wavelength of 570 nm and reference wavelength of 630 nm.
Proliferation inhibition rate (PI) was calculated according to formula:
[formula] wherein, Atest is the absorbance of dosing group, and Acontrol is the absorbance of negative control. Test results were expressed as mean±SD, and statistical T test was performed. *P<0.05 indicates significant difference, **P<0.01 indicates extremely significant difference. Based upon the results, the efficacy of the fusion protein against rheumatoid arthritis was screened.
In the P4 control group, TSL-4 fusion protein served as a control agent.

Molecule | dimer stability during protein preparation [1] | inhibition ratio of mice splenic lymphocyte proliferation relative to group ConA [2] | inhibition rate / in vitro efficacy compared with TSL-4 control group [2]
HM-3-(GGGGS)3-IgG4-Fc (IVRRADRAAVPGGGGRGDGGGGSGGGGSGGGGS[human IgG4 Fc skipped]) [TSL-5] | serious problem of dimer degradation |  | 
IgG4-Fc-(GGGGS)3-HM-3 ([human IgG4 Fc skipped]GGGGSGGGGSGGGGSIVRRADRAAVPGGGGRGD) [TSL-6] | serious problem of dimer degradation |  | 
mIgG4-Fc-A(EAAAK)4A-HM-3 (protein) [human IgG4 Fc with S228P F234A L235A (EU numbers) and a few adjoining residues skipped]AEAAAKEAAAKEAAAKEAAAKAIVRRADRAAVPGGGGRGD |  | improved significantly | 
mIgG4-Fc-(AP)9-HM-3 (protein) [human IgG4 Fc with S228P F234A L235A (EU numbers) and a few adjoining residues skipped]APAPAPAPAPAPAPAPAPIVRRADRAAVPGGGGRGD |  | improved significantly | 
HM-3-(GGGGS)3-mIgG4-Fc-(GGGGS)3-HM-3 (protein) IVRRADRAAVPGGGGRGDGGGGSGGGGSGGGGSA[human IgG4 Fc with S228P F234A L235A (EU numbers) skipped]GGGGSGGGGSGGGGSIVRRADRAAVPGGGGRGD |  |  | lower than that of TSL-4 protein
mIgG4-Fc-G5-HM-3-G8-HM-3 (protein) [human IgG4 Fc with S228P F234A L235A (EU numbers) and a few adjoining residues skipped]GGGGGIVRRADRAAVPGGGGRGDGGGGGGGGIVRRADRAAVPGGGGRGD |  |  | lower than that of TSL-4 protein
